Experimental data published in the RNAGym collection of RNA variant scans (doi:10.1093/nar/gkz1192).
The source gives no read counts; variants with many changes may rest on few reads.

B1: CPEB3 Ribozyme (parent)
chain: UAACAGGGGGCCACAGCAGAAGCGUUCACGUCGCAGCCCCUGUCAGAUUCUGGUGAAUCUGCGAAUUCUGCUGUAUAUCUC

Variants of: B1
Assay: self-cleavage, relative activity (ratio to wild type); higher = more cleavage; in vitro, sequencing
Procedure, shortened: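 Relative activity compares each variant's cleaved/total read fraction with that of the unmutated ribozyme. To get these fractions, barcoded CPEB3 ribozyme libraries from rounds of error-prone PCR were transcribed with T7 RNA polymerase for 5 hours at 37°C and then given 15 min of DNase I treatment before EDTA was added. The RNAs were reverse transcribed with template switching and sequenced on Illumina, and DNA sequencing linked barcodes to variants. A minimum of 5 reads applied, and three batches were averaged.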

| Variant | self-cleavage |
| --- | --- |
| U54C G61C U80C | 0.35 |
| U51G A64G U69A A75G U80C | 0.26 |
| U54C U67C U69C | 0.15 |
| U54C U67C U69A | 0.26 |
| U51C U66C U69C U80C | 0.34 |
| U54A C68U U69G | 0.52 |
| U51A G55A U60C | 0.34 |
| U51C C71A C79U | 0.32 |
| U54C A57G U69C | 0.21 |
| U54C U69A U72C | 0.27 |
| U51C A57G U72A U80C | 0.59 |
| G53C A65G U80C | 0.55 |
| U54C U67A U72A | 0.15 |
| U51G U66C U78C | 0.27 |
| U54C A64G U67C U72C U78G | 0.36 |
| U54G U67C U80C | 0.29 |
| U51A U60A C71G U80C | 0.55 |
| U54C A56G U78A | 0.73 |
| U54C A56G U78C | 0.53 |
| U54C A65G A75U | 0.28 |
| U51C C68A U76C | 0.56 |
| U51C U54C U74A | 1.24 |
| G55A A56G U72A | 0.46 |
| U51A A65G U69C | 0.21 |

| Variant | self-cleavage |
| --- | --- |
| G52A A64C U67C | 0.46 |
| G53A U67A U76C | 0.69 |
| U51C U54C U58A | 0.41 |
| U51C C62U A65G U67C | 0.4 |
| U51A U69C U72A U80C | 0.64 |
| U51A G52U U54C | 0.87 |
| U54C G55A G61A | 0.17 |
| U51C A56G C79U | 1.23 |
| U54A A56U G73A | 1.06 |
| U54A U66C U69A | 0.48 |
| U51A C62U U66C U78C | 0.17 |
| U54A U67A U78C | 0.81 |
| U51C U54G U67C | 0.4 |
| G52A A64G U78C | 0.64 |
| G52A A64G G70U | 0.45 |
| G52A G61A U74C | 1.08 |
| G55A U69A U72C U76C | 0.18 |
| U54C U60A U66C | 0.19 |
| U54C A56U U66C | 0.18 |
| G52A U60C U72C U78C | 0.87 |
| U51C A57U G63U | 0.54 |
| U54C A64G C81U | 0.88 |
| G52U A64G U72C | 1.06 |
| U51G U72C A75U | 1.27 |

| Variant | self-cleavage |
| --- | --- |
| G52U A56G A57G U72A | 0.46 |
| U51C U76C U80C | 1.21 |
| G53U U54A U58C U60A U74G | 0.34 |
| U51C U60A A64U | 0.51 |
| U54C U76C U80C | 1.19 |
| U54A U66C U80C | 0.32 |
| U54C U66C U80C | 0.26 |
| U54C G63A A64G U69G | 0.37 |
| G52A A56U A64U | 0.36 |
| U54C G70A A77G | 0.54 |
| U54C A64G U72C A75G U80A | 0.52 |
| U51A A65G U69C U72C U78C | 0.56 |
| U54C A56G A57G | 0.25 |
| U51G A57G U76A U80A | 1 |
| U54C U69A G73U U74C | 0.67 |
| U51A U60C U69A | 0.34 |
| U51A U60A C71U | 0.19 |
| U51G A57G U66A U69C | 0.29 |
| U54A A57G U78C | 0.84 |
| U51C U54C A57G | 0.67 |
| G52C U60A U69C | 0.72 |
| U54C A56C U69C | 0.14 |
| G52U U54C U60C U72A | 0.4 |
| U54C U60A A65G U69C | 0.27 |

| Variant | self-cleavage |
| --- | --- |
| U54A G61A A65G U74C | 0.33 |
| G52A U58A C62A | 0.27 |
| G53A A64U U76A | 0.31 |
| U51A G52C U69A | 1.01 |
| G55A U67C U72A | 0.11 |
| U51G A64U A65G | 0.25 |
| U51A U60A C68A | 0.44 |
| G52A A56C U69A | 0.49 |
| U54C A64U U67C A75U | 0.45 |
| U51C U54C U72C A77G | 1.22 |
| U54A A56U A64U | 0.21 |
| U54C U72C U78C | 1.24 |
| U51C U54C U60C U69C | 0.4 |
| U51A C62U U72C A75G | 0.2 |
| C50U U54C A57G | 0.55 |
| U54C U60A U78C C81U | 0.28 |
| U54A U78C U80C | 0.97 |
| G52C U54G A57G A64G | 0.62 |
| U54C A56G U66G U69C | 0.16 |
| U51G U69A G73A | 1.01 |
| U51C U60A A65G | 0.46 |
| U51A U72A U78C | 0.58 |
| U51G A64G U67C U69C C81U | 0.19 |
| U54C U66A U69A | 0.18 |

| Variant | self-cleavage |
| --- | --- |
| U54G G55U U80C | 0.98 |
| U51C A56U U74C | 1.03 |
| U54C U60A U66C U69C | 0.23 |
| U54C A57G U69C A77G | 0.31 |
| U54A U60C A77G | 0.94 |
| U51C A56G U58A | 0.5 |
| U51A G63U A64C | 0.21 |
| U51A U60C A64U U72C U76C | 0.48 |
| U54A U60C U80C | 0.56 |
| U54A A57G U58C C68G | 0.22 |
| U54C U67G U69C U80A | 0.21 |
| G52A G55C A57U | 0.51 |
| U51A A56U A64C | 0.18 |
| G52A A57G A77G | 1.14 |
| U54C U66C U74C | 0.42 |
| U51G U54C U58C | 0.45 |
| U51A G53U U54C A57U A65U U66C U69C | 0.43 |
| U51A U58C G61C U66A | 0.3 |
| U51A U60C A64U U69A U80A | 0.34 |
| U51G U58C C62U A65U U72C | 0.23 |
| U51C U54C U72C | 1.15 |
| U51C U54C U72A | 0.65 |
| U51A G53A U54C | 1.21 |
| U51C U58A U60A | 0.23 |

| Variant | self-cleavage |
| --- | --- |
| U54C C62G U66G | 0.16 |
| C50U U60C U78C | 0.2 |
| U54C A56G U78C U80A | 0.66 |
| G53C A57G A64G U66A A77G | 0.15 |
| U54G U67A U78C | 0.2 |
| U54C U67A U72C A75G | 0.44 |
| U54A U74C U80C | 1.26 |
| U54C U60C U69A | 0.42 |
| U51A U66G U69C | 0.09 |
| U54C A57U A64C U67A | 0.09 |
| U54C C59U U72C | 0.8 |
| U51A A56G U60C | 0.42 |
| U51A A57G U67C U78C | 0.22 |
| U51A U58A U69C | 0.36 |
| G53U U58C A75G | 0.86 |
| U54A A57G A64G | 0.8 |
| U54A A57G A64U | 0.41 |
| U51A U69G A75G A77G | 0.55 |
| U54C A77G U80C | 0.88 |
| U51G U74A U78A | 1.16 |
| U54A C68U U76C | 1.14 |
| U51A U54C U72C | 1.12 |
| U51C G52C G55U U74G A77U U78A | 1.16 |
| U51A A65U U67C U76C | 0.33 |

| Variant | self-cleavage |
| --- | --- |
| U54A U60C U66A G70U | 0.34 |
| G52C U72A U78C | 0.77 |
| U54C U60C A77G | 0.43 |
| U51C A56C U74C | 0.91 |
| U51G A57U U72C U80C | 0.65 |
| U54C U60C U67C U78A | 0.29 |
| U51C U58A C68U | 0.16 |
| U51C U60A U66C | 0.43 |
| U54C U72C U80C | 1.15 |
| U54C U66C A77G | 0.38 |
| U54C U67G U80C | 0.46 |
| U54C A64U U69A | 0.28 |
| U51A C68A U78C | 0.56 |
| U51A U58A G61A | 0.46 |
| U54G G63C A65U U69A | 0.34 |
| U51A A64U U69C | 0.44 |
| U51A A64U U69A | 0.35 |
| U51A G52A A57G G63A U66C G73A A77G | 0.65 |
| U54A A57G U67C | 0.68 |
| U51A U54C A56G U60A U67C U80C C81A | 0.4 |
| U51A G53A G61A | 1.16 |
| G53A U60C U80C | 0.4 |
| U51C U60G A75G | 0.15 |
